The text below walks through data of PMC13263796.

Results are given in words; binding and its absence hold for the method and conditions named. For some of these results: In cells and extracts the contact can be indirect. Some results given as binding are weak or reduced against the parent protein; the word gives no strength. Tags and fused reporters may be left off the sequences shown.

One experiment concerns the target T1, BD-Atg9 (S. cerevisiae) (UniProt Q12142).
T1 sequence: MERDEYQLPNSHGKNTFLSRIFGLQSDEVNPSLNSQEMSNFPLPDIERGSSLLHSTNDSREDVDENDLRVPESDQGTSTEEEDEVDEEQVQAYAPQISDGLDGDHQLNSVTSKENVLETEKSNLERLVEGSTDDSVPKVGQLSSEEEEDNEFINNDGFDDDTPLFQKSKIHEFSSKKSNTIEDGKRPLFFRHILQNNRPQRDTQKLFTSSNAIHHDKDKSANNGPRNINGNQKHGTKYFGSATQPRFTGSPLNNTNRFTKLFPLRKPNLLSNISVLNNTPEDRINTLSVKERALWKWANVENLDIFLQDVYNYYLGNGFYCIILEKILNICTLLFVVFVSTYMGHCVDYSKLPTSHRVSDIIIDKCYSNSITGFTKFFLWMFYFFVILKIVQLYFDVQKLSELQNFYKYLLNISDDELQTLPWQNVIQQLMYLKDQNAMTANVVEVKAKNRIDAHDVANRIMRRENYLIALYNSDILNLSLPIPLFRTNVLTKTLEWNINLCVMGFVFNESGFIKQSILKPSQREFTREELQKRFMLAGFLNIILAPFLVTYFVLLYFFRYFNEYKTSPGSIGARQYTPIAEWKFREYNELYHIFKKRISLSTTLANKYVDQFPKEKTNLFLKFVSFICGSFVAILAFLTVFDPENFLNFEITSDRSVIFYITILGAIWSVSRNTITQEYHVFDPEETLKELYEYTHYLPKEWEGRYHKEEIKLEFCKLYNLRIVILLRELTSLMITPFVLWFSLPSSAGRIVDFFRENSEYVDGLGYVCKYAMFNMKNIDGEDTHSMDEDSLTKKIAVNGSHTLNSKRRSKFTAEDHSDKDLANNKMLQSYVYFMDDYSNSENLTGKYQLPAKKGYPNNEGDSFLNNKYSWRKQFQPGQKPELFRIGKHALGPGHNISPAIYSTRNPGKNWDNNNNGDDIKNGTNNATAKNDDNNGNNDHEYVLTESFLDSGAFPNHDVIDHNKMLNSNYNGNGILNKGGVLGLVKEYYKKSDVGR
The experiment in a line: two-hybrid; BD-ATG9 with AD-ATG11 or mutants in multiple-knockout yeast YCY149 (lacking 25 ATG genes); growth on SMD -ura -leu -his with 1.5 mM 3-amino-triazol, 4-5 days at 30°C.

For a further experiment, the target named is T2, Atg9-PA (S. cerevisiae) (UniProt Q12142).
T2 sequence: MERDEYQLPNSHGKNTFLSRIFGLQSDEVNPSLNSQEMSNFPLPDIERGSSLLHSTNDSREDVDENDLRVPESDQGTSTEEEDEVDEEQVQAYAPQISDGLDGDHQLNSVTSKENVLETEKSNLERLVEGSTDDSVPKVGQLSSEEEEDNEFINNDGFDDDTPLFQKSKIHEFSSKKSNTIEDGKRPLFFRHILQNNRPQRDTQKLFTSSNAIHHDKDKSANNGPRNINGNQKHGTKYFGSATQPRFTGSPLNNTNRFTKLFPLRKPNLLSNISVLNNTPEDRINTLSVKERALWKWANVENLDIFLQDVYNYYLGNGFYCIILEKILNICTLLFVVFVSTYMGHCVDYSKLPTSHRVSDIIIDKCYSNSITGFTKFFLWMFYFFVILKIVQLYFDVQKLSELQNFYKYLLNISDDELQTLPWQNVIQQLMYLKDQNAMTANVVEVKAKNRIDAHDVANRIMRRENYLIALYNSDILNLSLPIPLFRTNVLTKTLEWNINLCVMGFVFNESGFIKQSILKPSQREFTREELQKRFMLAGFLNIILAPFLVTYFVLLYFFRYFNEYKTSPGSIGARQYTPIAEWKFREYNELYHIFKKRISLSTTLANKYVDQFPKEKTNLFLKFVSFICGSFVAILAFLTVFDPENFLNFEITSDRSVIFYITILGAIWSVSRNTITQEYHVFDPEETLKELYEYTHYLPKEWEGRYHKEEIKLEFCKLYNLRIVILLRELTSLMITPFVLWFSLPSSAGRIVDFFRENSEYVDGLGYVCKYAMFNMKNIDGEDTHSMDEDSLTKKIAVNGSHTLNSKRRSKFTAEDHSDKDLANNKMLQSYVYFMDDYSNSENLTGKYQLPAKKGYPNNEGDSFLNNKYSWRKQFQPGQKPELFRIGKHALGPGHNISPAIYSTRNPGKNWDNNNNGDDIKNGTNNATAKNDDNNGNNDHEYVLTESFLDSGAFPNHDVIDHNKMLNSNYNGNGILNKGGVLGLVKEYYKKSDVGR
The experiment in a line: co-IP; overexpressed GFP-Atg11 co-precipitated by overexpressed Atg9-PA from yeast in growing conditions (SMD -ura -trp, log phase); washes at 4°C; blots probed with anti-GFP.

B1: AD-atg11ΔCC2 (protein, UniProt Q12527)
chain: MADADEYSTAPTQQEITPLQTTATIINAISGECITTNVDFFVSLDKFKQFIARKWKIPPDQLLILLPYGNKLKPSMFKELLINRSFTLNDFYVYDRRLFSLVSKPTPTNLLTSKDSNPMNSPNSNDLTETLEYLIKNSHISQYQGSDTIMIKPMPSPLEDADVDLSRLNYHSVTSLLTTNLGWLSALEIDVHYFKSLIPDIIAHIKRIFDGLTVCSQYLKLYCFDVESLYNSNVQFLNQLVDNGMTSKWEKCFNDTLSKLTALEGDSLQKFINIESLLENEKSVKILNHSINGKLNKIKREIDENASFRDIITVNIDRLRQMFTPNESKFELEDQMAESFEVLVSEMRTRSRNVLDKEEEEFNSQEFLKSMNVMLEKDKKESVKTLFTISQALYSQIGELIDLKKSLQKHAVAILGNIAFTQMEILGIKRLLLNECNKDLELYKKYEVEFAQVEDLPLIYGLYLIEKYRRLSWFQQILSFISNFNQDLELFKQNELRTRNKWVKNFGSIATVFCEDLLSSSDFKRLNEYHSHTSPPIIDLLSKTLFETKRFHIIYSNFKNNNNNSSNGNSISPEGSIALKSDDVVKGYKTRIKKLESLLHEFQYSDIGHWPQGVLNTHLKPFRGSATSINKKKFLGASVLLEPANISEVNIDSVSQANNHQIQELESNVDDLLHQLQLLKEENNRKSMQISEMGKKISDLEVEKTAYRETLTNLNQELARLTNEEQSHRTEIFTLNASFKKQLNDIISQDNEKIEKLTGDYDDVSKSRERLQMDLDESNKKHEQEVNLLKADIERLGKQIVTSEKSYAETNSSSMEKGEKFETIPLAEDPGRENQISAYTQTLQDRIFDIISTNIFILENIGLLLTFDNNNNIQIRRVKGLKKGTAQSNILDESTQMLDAHDNSLIKSPVFQKLKDEYELIKSVANGSEKDTQQSIFLGNITQLYDNKLYEVAVIRRFKDIETLAKKLTKENKIKRTLLERFQREKVTLRNFQIGDLALFLPTRENVNSVGSMSSSTSSLSSSFSSVDLSTPPPLDAMSIQSSPSVIHSNVINQASISGRDKNKLMRPWAAFTAFEESTRYFLKDEKGLTKGKEWFVGRIVTLEHFVADSPSNNPFRLPKGSVWFQVTAVVVSYQGV
Turning to B1, the binding result with BD-Atg9 (S. cerevisiae) is “no binding”.

B2: GFP-Atg11 WT (protein, UniProt Q12527 1-1178)
chain: MADADEYSTAPTQQEITPLQTTATIINAISGECITTNVDFFVSLDKFKQFIARKWKIPPDQLLILLPYGNKLKPSMFKELLINRSFTLNDFYVYDRRLFSLVSKPTPTNLLTSKDSNPMNSPNSNDLTETLEYLIKNSHISQYQGSDTIMIKPMPSPLEDADVDLSRLNYHSVTSLLTTNLGWLSALEIDVHYFKSLIPDIIAHIKRIFDGLTVCSQYLKLYCFDVESLYNSNVQFLNQLVDNGMTSKWEKCFNDTLSKLTALEGDSLQKFINIESLLENEKSVKILNHSINGKLNKIKREIDENASFRDIITVNIDRLRQMFTPNESKFELEDQMAESFEVLVSEMRTRSRNVLDKEEEEFNSQEFLKSMNVMLEKDKKESVKTLFTISQALYSQIGELIDLKKSLQKHAVAILGNIAFTQMEILGIKRLLLNECNKDLELYKKYEVEFAQVEDLPLIYGLYLIEKYRRLSWFQQILSFISNFNQDLELFKQNELRTRNKWVKNFGSIATVFCEDLLSSSDFKRLNEYHSHTSPPNEDEEDENENSIANYRQDLVKVSQAIDNYMTQIKETDVSEPIIDLLSKTLFETKRFHIIYSNFKNNNNNSSNGNSISPEGSIALKSDDVVKGYKTRIKKLESLLHEFQYSDIGHWPQGVLNTHLKPFRGSATSINKKKFLGASVLLEPANISEVNIDSVSQANNHQIQELESNVDDLLHQLQLLKEENNRKSMQISEMGKKISDLEVEKTAYRETLTNLNQELARLTNEEQSHRTEIFTLNASFKKQLNDIISQDNEKIEKLTGDYDDVSKSRERLQMDLDESNKKHEQEVNLLKADIERLGKQIVTSEKSYAETNSSSMEKGEKFETIPLAEDPGRENQISAYTQTLQDRIFDIISTNIFILENIGLLLTFDNNNNIQIRRVKGLKKGTAQSNILDESTQMLDAHDNSLIKSPVFQKLKDEYELIKSVANGSEKDTQQSIFLGNITQLYDNKLYEVAVIRRFKDIETLAKKLTKENKIKRTLLERFQREKVTLRNFQIGDLALFLPTRENVNSVGSMSSSTSSLSSSFSSVDLSTPPPLDAMSIQSSPSVIHSNVINQASISGRDKNKLMRPWAAFTAFEESTRYFLKDEKGLTKGKEWFVGRIVTLEHFVADSPSNNPFRLPKGSVWFQVTAVVVSYQGV
In the case of B2, the binding entry in the experiment with Atg9-PA (S. cerevisiae) is given as “binds”.

B3: GFP-Atg11 YDLL (protein, UniProt Q12527 1-1178)
chain: MADADEYSTAPTQQEITPLQTTATIINAISGECITTNVDFFVSLDKFKQFIARKWKIPPDQLLILLPYGNKLKPSMFKELLINRSFTLNDFYVYDRRLFSLVSKPTPTNLLTSKDSNPMNSPNSNDLTETLEYLIKNSHISQYQGSDTIMIKPMPSPLEDADVDLSRLNYHSVTSLLTTNLGWLSALEIDVHYFKSLIPDIIAHIKRIFDGLTVCSQYLKLYCFDVESLYNSNVQFLNQLVDNGMTSKWEKCFNDTLSKLTALEGDSLQKFINIESLLENEKSVKILNHSINGKLNKIKREIDENASFRDIITVNIDRLRQMFTPNESKFELEDQMAESFEVLVSEMRTRSRNVLDKEEEEFNSQEFLKSMNVMLEKDKKESVKTLFTISQALYSQIGELIDLKKSLQKHAVAILGNIAFTQMEILGIKRLLLNECNKDLELYKKYEVEFAQVEDLPLIYGLYLIEKARRLSWFQQILSFISNFNQDLELFKQNELRTRNKWVKNFGSIATVFCEAALSSSDFKRANEYHSHTSPPNEDEEDENENSIANYRQDLVKVSQAIDNYMTQIKETDVSEPIIDLLSKTLFETKRFHIIYSNFKNNNNNSSNGNSISPEGSIALKSDDVVKGYKTRIKKLESLLHEFQYSDIGHWPQGVLNTHLKPFRGSATSINKKKFLGASVLLEPANISEVNIDSVSQANNHQIQELESNVDDLLHQLQLLKEENNRKSMQISEMGKKISDLEVEKTAYRETLTNLNQELARLTNEEQSHRTEIFTLNASFKKQLNDIISQDNEKIEKLTGDYDDVSKSRERLQMDLDESNKKHEQEVNLLKADIERLGKQIVTSEKSYAETNSSSMEKGEKFETIPLAEDPGRENQISAYTQTLQDRIFDIISTNIFILENIGLLLTFDNNNNIQIRRVKGLKKGTAQSNILDESTQMLDAHDNSLIKSPVFQKLKDEYELIKSVANGSEKDTQQSIFLGNITQLYDNKLYEVAVIRRFKDIETLAKKLTKENKIKRTLLERFQREKVTLRNFQIGDLALFLPTRENVNSVGSMSSSTSSLSSSFSSVDLSTPPPLDAMSIQSSPSVIHSNVINQASISGRDKNKLMRPWAAFTAFEESTRYFLKDEKGLTKGKEWFVGRIVTLEHFVADSPSNNPFRLPKGSVWFQVTAVVVSYQGV
For the molecule B3, the binding entry with Atg9-PA (S. cerevisiae) is reported as “binds”.

B4: AD-atg11Δ455-535 (protein, UniProt Q12527)
chain: MADADEYSTAPTQQEITPLQTTATIINAISGECITTNVDFFVSLDKFKQFIARKWKIPPDQLLILLPYGNKLKPSMFKELLINRSFTLNDFYVYDRRLFSLVSKPTPTNLLTSKDSNPMNSPNSNDLTETLEYLIKNSHISQYQGSDTIMIKPMPSPLEDADVDLSRLNYHSVTSLLTTNLGWLSALEIDVHYFKSLIPDIIAHIKRIFDGLTVCSQYLKLYCFDVESLYNSNVQFLNQLVDNGMTSKWEKCFNDTLSKLTALEGDSLQKFINIESLLENEKSVKILNHSINGKLNKIKREIDENASFRDIITVNIDRLRQMFTPNESKFELEDQMAESFEVLVSEMRTRSRNVLDKEEEEFNSQEFLKSMNVMLEKDKKESVKTLFTISQALYSQIGELIDLKKSLQKHAVAILGNIAFTQMEILGIKRLLLNECNKDLELYKKYEVEFAQVEPNEDEEDENENSIANYRQDLVKVSQAIDNYMTQIKETDVSEPIIDLLSKTLFETKRFHIIYSNFKNNNNNSSNGNSISPEGSIALKSDDVVKGYKTRIKKLESLLHEFQYSDIGHWPQGVLNTHLKPFRGSATSINKKKFLGASVLLEPANISEVNIDSVSQANNHQIQELESNVDDLLHQLQLLKEENNRKSMQISEMGKKISDLEVEKTAYRETLTNLNQELARLTNEEQSHRTEIFTLNASFKKQLNDIISQDNEKIEKLTGDYDDVSKSRERLQMDLDESNKKHEQEVNLLKADIERLGKQIVTSEKSYAETNSSSMEKGEKFETIPLAEDPGRENQISAYTQTLQDRIFDIISTNIFILENIGLLLTFDNNNNIQIRRVKGLKKGTAQSNILDESTQMLDAHDNSLIKSPVFQKLKDEYELIKSVANGSEKDTQQSIFLGNITQLYDNKLYEVAVIRRFKDIETLAKKLTKENKIKRTLLERFQREKVTLRNFQIGDLALFLPTRENVNSVGSMSSSTSSLSSSFSSVDLSTPPPLDAMSIQSSPSVIHSNVINQASISGRDKNKLMRPWAAFTAFEESTRYFLKDEKGLTKGKEWFVGRIVTLEHFVADSPSNNPFRLPKGSVWFQVTAVVVSYQGV
For the molecule B4, the binding entry with BD-Atg9 (S. cerevisiae) is recorded as “no binding”.
